{"source": "PubChem BioAssay AID504332", "about": "(National Center for Advancing Translational Sciences (NCATS), 2011)", "note": "Hit rate of the full screen: of about 350,000 compounds, about 31,000 (8.9%) were called active. This list was built around the results that the source calls inconclusive (neither active nor inactive); the mix of calls is not that of the screen. Calls follow the shape of the dose curve; as a rule, active = well fitted inhibition curve with a large enough effect; inconclusive = small, poorly fitted or top-dose-only effect; inactive = no such curve, though single readings can be large or run the other way. A potency beside an inconclusive call is a rough fit, not a confirmed value. % is scaled to controls: 0 for no effect and ±100 for the full control effect; potency is read from the fitted curve at half-maximal effect; tags tell the direction and shape of the fitted curve."}
{"target": "Histone-lysine N-methyltransferase EHMT2 (Homo sapiens) (UniProt Q96KQ7)", "sequence (Q96KQ7 whole entry, looked up)": "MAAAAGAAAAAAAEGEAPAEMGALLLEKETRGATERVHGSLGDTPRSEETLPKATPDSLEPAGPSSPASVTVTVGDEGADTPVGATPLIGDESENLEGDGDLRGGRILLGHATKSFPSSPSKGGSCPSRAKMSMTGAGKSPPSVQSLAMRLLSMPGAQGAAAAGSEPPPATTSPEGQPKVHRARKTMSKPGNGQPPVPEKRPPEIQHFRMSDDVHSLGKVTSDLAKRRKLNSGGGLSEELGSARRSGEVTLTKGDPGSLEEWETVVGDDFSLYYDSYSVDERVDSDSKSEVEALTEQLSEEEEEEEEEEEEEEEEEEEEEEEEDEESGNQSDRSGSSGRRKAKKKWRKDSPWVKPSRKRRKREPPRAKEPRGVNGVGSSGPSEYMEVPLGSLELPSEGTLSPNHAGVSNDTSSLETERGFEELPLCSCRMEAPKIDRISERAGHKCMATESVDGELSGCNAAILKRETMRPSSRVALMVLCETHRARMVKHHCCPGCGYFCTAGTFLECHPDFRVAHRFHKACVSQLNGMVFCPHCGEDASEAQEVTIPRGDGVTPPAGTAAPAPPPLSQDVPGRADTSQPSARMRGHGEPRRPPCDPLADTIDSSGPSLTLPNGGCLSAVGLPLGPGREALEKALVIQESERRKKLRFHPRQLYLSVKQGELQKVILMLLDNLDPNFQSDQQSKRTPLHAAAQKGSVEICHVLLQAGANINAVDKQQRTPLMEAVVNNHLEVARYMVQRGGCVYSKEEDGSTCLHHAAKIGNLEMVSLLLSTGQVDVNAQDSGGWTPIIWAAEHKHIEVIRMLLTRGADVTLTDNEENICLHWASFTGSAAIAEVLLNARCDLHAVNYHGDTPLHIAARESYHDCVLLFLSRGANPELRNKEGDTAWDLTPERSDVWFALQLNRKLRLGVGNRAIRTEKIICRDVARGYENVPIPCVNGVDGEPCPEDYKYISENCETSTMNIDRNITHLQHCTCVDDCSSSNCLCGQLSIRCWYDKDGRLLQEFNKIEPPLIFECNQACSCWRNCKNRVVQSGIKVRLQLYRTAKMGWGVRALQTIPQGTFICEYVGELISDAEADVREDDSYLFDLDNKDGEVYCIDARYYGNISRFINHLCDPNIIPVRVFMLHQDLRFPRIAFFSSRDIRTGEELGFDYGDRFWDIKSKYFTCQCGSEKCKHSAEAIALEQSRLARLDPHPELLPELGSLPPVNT", "test": "qHTS Assay for Inhibitors of Histone Lysine Methyltransferase G9a; also: nearly all actives have a fitted effect of over 75% in size", "conditions": "G9a H3K9 monomethylation, AlphaScreen, 2 h; activity, negative = inhibition: at 59 µM (top of the series) unless noted", "outline": "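Step 1: enzyme (final 20 nM) with compound, 15 min RT. Step 2: substrate peptide 500 nM and SAM 20 uM, 2 h RT. Step 3: anti-H3K9me1 antibody and AlphaScreen beads, 10 min, then plate read.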"}
{"smiles": "CC(=O)Oc1ccc(-c2ccc(C(=O)Nc3cccc(S(=O)(=O)N4CCOCC4)c3)cc2)cc1", "Potency": "inconclusive: 44.7 µM [inhibitor, partial curve, poor fit]"}
{"smiles": "CCCCCC(O)(CCN1CCCCC1)c1ccccc1", "note": "(centres undefined)", "Potency": "inconclusive: 39.8 µM [inhibitor, single point]"}
{"smiles": "Cc1ccc(-c2ccnc(=S)[nH]2)cc1", "activity, negative = inhibition": "inactive: 1.55% [at 102 µM]"}
{"smiles": "Cc1sc2ncn(CC(=O)OC(C)C(=O)NC(C)(C)C)c(=O)c2c1C", "note": "(centres undefined)", "Potency": "inconclusive: 89.1 µM [inhibitor, single point]"}
{"smiles": "O=C(CC(Nc1ccc(Cl)cc1Cl)C(=O)O)c1ccccc1", "note": "(centres undefined)", "activity, negative = inhibition": "inconclusive: -55.6% [inhibitor] [at 102 µM]"}
{"smiles": "O=C1C(NS(=O)(=O)c2cccs2)=C(N2CCN(c3cccc(Cl)c3)CC2)C(=O)c2ccccc21", "Potency": "inconclusive: 2.82 µM [inhibitor, partial curve, poor fit]"}
{"smiles": "CCOC(=O)CNC(=O)CSc1nc(-c2ccc(C)cc2)ns1", "Potency": "active: 50.1 µM"}
{"smiles": "Cc1cc(C)c2c(-n3cccc3)c(C(=O)NNS(=O)(=O)c3ccc(Br)cc3)sc2n1", "Potency": "inconclusive: 70.8 µM [inhibitor, single point]"}
{"smiles": "CC(C)CNC(=O)c1ccccc1NC(=O)c1ccccc1N(C)S(C)(=O)=O", "Potency": "inconclusive: 25.1 µM [inhibitor, single point]"}
{"smiles": "O=C(CC(NC(=O)c1ccccc1)c1ccccc1)Nc1ccc(F)c(F)c1", "note": "(centres undefined)", "Potency": "inconclusive: 44.7 µM [inhibitor, partial curve, poor fit]"}
{"smiles": "COc1ccc(CCNc2nc3ccccc3n3nnnc23)cc1OC", "activity, negative = inhibition": "inactive: 7.7% [at 102 µM]"}
{"smiles": "c1ccc(-c2nc(N3CCCCCC3)nc(-n3ccnc3)n2)cc1", "activity, negative = inhibition": "inconclusive: -62.2% [inhibitor] [at 12.7 µM]"}
{"smiles": "C/C(=N/NC(=O)c1ccc(C)s1)c1cccnc1", "Potency": "inconclusive: 79.4 µM [inhibitor, single point]"}
{"smiles": "CCc1ccc2nc(N(Cc3cccnc3)C(C)=O)sc2c1", "activity, negative = inhibition": "inactive: 0.0547%"}
{"smiles": "CON(C)S(=O)(=O)c1ccc2c(c1)NC(=O)C1CCCN21", "note": "(centres undefined)", "Potency": "active: 25.1 µM"}
{"smiles": "CCOCCCNCc1cc(Cl)ccc1OCC", "Potency": "inconclusive: 7.94 µM [inhibitor, single point]"}
{"smiles": "CN(C)/C=C/C(=O)c1c(F)cccc1F", "activity, negative = inhibition": "inactive: 5.4% [at 102 µM]"}
{"smiles": "COC(=O)c1sccc1NC(=S)N1CCCCC1", "activity, negative = inhibition": "inactive: 3.69% [at 12.7 µM]"}
{"smiles": "Cc1ccc(NC(=O)CSc2nccn2Cc2ccco2)cc1Cl", "activity, negative = inhibition": "inactive: -30.8%"}
{"smiles": "COc1ccc(NC(=O)C2CC(c3ccc(OC)c(OC)c3)=NO2)cc1OC", "note": "(centres undefined)", "Potency": "inconclusive: 50.1 µM [inhibitor, partial curve, poor fit]"}
{"smiles": "COc1ccc(OC)c(CNS(=O)(=O)c2ccc3[nH]c4c(c3c2)CCCCC4)c1", "Potency": "active: 12.6 µM"}
{"smiles": "O=C(C1CCCCN1S(=O)(=O)c1ccccc1)N1CCN(C(c2ccccc2)c2ccccc2)CC1", "note": "(centres undefined)", "Potency": "inconclusive: 56.2 µM [inhibitor, partial curve]"}
{"smiles": "Cc1ccc(C(=O)c2ccc([N+](=O)[O-])cc2)cc1", "Potency": "inconclusive: 4.47 µM [inhibitor, partial curve, poor fit]"}
{"smiles": "CCN1CCN(c2ccc(S(=O)(=O)N3CCCCC3)cc2NC(=O)Cc2ccccc2F)CC1", "Potency": "inconclusive: 50.1 µM [inhibitor, partial curve]"}
{"smiles": "COc1cccc2cc(C(=O)C3=C(O)C(=O)N(c4cc(C)on4)C3c3cccs3)oc12", "note": "(centres undefined)", "Potency": "active: 12.6 µM"}
{"smiles": "CC1(c2ccc(OC(F)F)cc2)NC(=O)N(CC(=O)Nc2ccccc2)C1=O", "note": "(centres undefined)", "activity, negative = inhibition": "inactive: 20.8% [at 102 µM]"}
{"smiles": "COc1ccc(C2C(C(C)=O)=C(O)C(=O)N2CCc2ccccc2)c(OC)c1", "note": "(centres undefined)", "activity, negative = inhibition": "inconclusive: -74.8% [inhibitor]"}
{"smiles": "COc1ccc(NC(=O)c2c(NC(=O)CNCc3ccco3)sc3c2CCC3)c(OC)c1", "activity, negative = inhibition": "inactive: 22.5% [at 12.7 µM]"}
{"smiles": "Cc1nn(CC(=O)N2CCCCCC2)c(=O)c2cc3occc3n12", "activity, negative = inhibition": "inactive: 9.21% [at 102 µM]"}
{"smiles": "COC(=O)C(NNc1ccc(F)cc1)(NC(=O)c1ccccc1)C(F)(F)F", "note": "(centres undefined)", "Potency": "active: 25.1 µM"}
{"smiles": "CC(=O)c1c(C)[nH]c(C(=O)N2CCN(c3ncccn3)CC2)c1C", "Potency": "inconclusive: 89.1 µM [inhibitor, single point]"}
{"smiles": "CC(C)[C@H]1C=C(C(=O)O)O[C@@H](OCc2ccc(CO)cc2)C1", "Potency": "inconclusive: 7.08 µM [inhibitor, single point]"}
{"smiles": "CC(NC(=O)COC(=O)c1ccc(CO)cc1)C1CC2CCC1C2", "note": "(centres undefined)", "activity, negative = inhibition": "inactive: -0.318% [at 12.7 µM]"}
{"smiles": "CCCCC(=O)Nc1ccc(C(=O)NNC(=O)c2ccco2)cc1", "activity, negative = inhibition": "inactive: 1.09% [at 102 µM]"}
{"smiles": "O=C(CCCCn1c(=O)c2ccccc2n(Cc2ccccc2Cl)c1=O)NCc1ccc2c(c1)OCO2", "activity, negative = inhibition": "inactive: -5.23%"}
{"smiles": "O=C1C2C3C=CC(C3)C2C(=O)N1/N=C/c1cn(Cc2ccccc2)c2ccccc12", "note": "(centres undefined)", "activity, negative = inhibition": "inactive: 67.1% [at 12.7 µM]"}
{"smiles": "O=C(Nc1cccnc1)c1ccc(Oc2ccccc2)cc1", "Potency": "inconclusive: 35.5 µM [inhibitor, partial curve, poor fit]"}
{"smiles": "Cc1cnc(C(=O)OCC(=O)Nc2c(Cl)cc(Cl)cc2Cl)cn1", "activity, negative = inhibition": "inactive: 0.781%"}
{"smiles": "Cc1cc(NC(=O)COCc2cc(-c3ccc(F)cc3)on2)ccc1Br", "activity, negative = inhibition": "inactive: 6.51%"}
{"smiles": "CC1SC(=NC(=O)c2ccncc2)NC1=O", "note": "(centres undefined)", "Potency": "active: 39.8 µM"}
{"smiles": "CCOc1ccc(CNC(=O)c2ccc3nc(CC)c(CC)nc3c2)cc1", "activity, negative = inhibition": "inactive: 9.11%"}
{"smiles": "CC(c1ccccc1)N1CCN(C(=O)CCl)CC1", "note": "(centres undefined)", "Potency": "inconclusive: 79.4 µM [inhibitor, single point]"}
{"smiles": "Cc1ccc(Nc2c(-c3ccc(Cl)cc3)nc3sccn23)c(C)c1", "Potency": "inconclusive: 31.6 µM [inhibitor, single point]"}
{"smiles": "CCOC(=O)N1CCN(C(=O)CSCC(=O)Nc2nc(-c3ccc4c(c3)OCO4)cs2)CC1", "Potency": "inconclusive: 89.1 µM [inhibitor, partial curve, poor fit]"}
{"smiles": "COc1cccc(N2CCN(C(=O)CCCn3c(=O)[nH]c4ccc(Br)cc4c3=O)CC2)c1", "Potency": "inconclusive: 25.1 µM [inhibitor, partial curve, poor fit]"}
{"smiles": "COc1cc(C(=O)NC2CCCc3ccccc32)cc(OC)c1C", "note": "(centres undefined)", "Potency": "inconclusive: 25.1 µM [inhibitor, single point]"}
{"smiles": "COc1ccc(/C=N/N2CCN(C)CC2)c(OC)c1OC", "activity, negative = inhibition": "inactive: -36.8% [at 102 µM]"}
{"smiles": "Cc1nc2cc(C(=O)OCC(=O)Nc3ccc(C#N)cc3)ccc2n1-c1ccccc1", "Potency": "inconclusive: 89.1 µM [inhibitor, single point]"}
{"smiles": "COc1cccc(-c2cc(C(=O)N3CCCCC3C)no2)c1", "note": "(centres undefined)", "activity, negative = inhibition": "inactive: 17.8%"}
{"smiles": "CCOc1ccc(/C=C2\\NC(=S)NC2=O)cc1", "Potency": "active: 44.7 µM"}
{"smiles": "O=[N+]([O-])c1ccc(N/N=C/c2ccc[nH]2)cc1", "Potency": "active: 11.2 µM"}
{"smiles": "CC(Sc1nnc(-c2ccccc2F)o1)C(=O)Nc1ccc(N2CCOCC2)cc1", "note": "(centres undefined)", "Potency": "inconclusive: 79.4 µM [inhibitor, partial curve, poor fit]"}
{"smiles": "CSC1=NSC2=NC(=O)/C(=C\\c3cccs3)C(=N)N12", "Potency": "inconclusive: 89.1 µM [inhibitor, single point]"}
{"smiles": "CN(C)C(=O)C[n+]1cccc(/C=N/O)c1", "Potency": "inconclusive: 35.5 µM [inhibitor, single point]"}
{"smiles": "CCC(C)c1ccccc1OCCCNC1CCCC1", "note": "(centres undefined)", "Potency": "inconclusive: 28.2 µM [inhibitor, single point]"}
{"smiles": "Cc1cc(C)n(-c2nc3ccccc3nc2Nc2ccc(Cl)cc2Cl)n1", "Potency": "inconclusive: 44.7 µM [inhibitor, partial curve, poor fit]"}
{"smiles": "O=C(Nc1ccc2c(c1)OCCO2)C(=O)NC1CC1", "activity, negative = inhibition": "inactive: 1.36% [at 102 µM]"}
{"smiles": "Cc1cc(Cl)ccc1NC(=O)CN(C)C1=NS(=O)(=O)c2ccccc21", "activity, negative = inhibition": "inactive: 16.1% [at 2.33 µM]"}
{"smiles": "CC(=O)c1cccc(N(C(=O)c2ccccn2)C(C(=O)NC2CCCCC2)c2cccs2)c1", "note": "(centres undefined)", "Potency": "inconclusive: 0.398 µM [inhibitor, full curve, poor fit]"}
{"smiles": "Cc1ccc(S(=O)(=O)N2CCC(C(=O)NCCCn3ccnc3)CC2)cc1", "Potency": "inconclusive: 6.31 µM [inhibitor, partial curve]"}
{"smiles": "Nc1ncnc(Sc2ncccn2)c1[N+](=O)[O-]", "Potency": "inconclusive: 89.1 µM [inhibitor, single point]"}
{"smiles": "O=c1[nH][nH]c(-c2ccccc2)c1C=Nc1ccc(OC(F)(F)F)cc1", "Potency": "inconclusive: 25.1 µM [inhibitor, full curve]"}
{"smiles": "COc1ccc(CN(CCCN2CCOCC2)S(=O)(=O)N(C)C)cc1OC", "Potency": "inconclusive: 79.4 µM [inhibitor, single point]"}
{"smiles": "NNC(=O)Nc1cccc(C(F)(F)F)c1", "activity, negative = inhibition": "inactive: 14.9% [at 102 µM]"}
{"smiles": "Cc1ccc(-n2c(C)cc(C(=O)CSc3nncs3)c2C)cc1", "Potency": "inconclusive: 39.8 µM [inhibitor, single point]"}
{"smiles": "COc1ccc(CCC(=O)Nc2cc(Cl)ccc2N2CCN(C)CC2)cc1", "activity, negative = inhibition": "inactive: -15.6% [at 102 µM]"}
{"smiles": "CCCC(=O)NCCCCNC(=O)CCC", "activity, negative = inhibition": "inactive: 8.15% [at 102 µM]"}
{"smiles": "Cc1cc(Br)ccc1OCCCCN1CCC(C)CC1", "Potency": "active: 11.2 µM"}
{"smiles": "CC1(c2ccc3c(c2)OCCO3)NC(=O)N(CC(=O)Nc2ccccc2SCC#N)C1=O", "note": "(centres undefined)", "Potency": "inconclusive: 35.5 µM [inhibitor, single point]"}
{"smiles": "CN(C)c1ccc(C(CNC(=O)c2ccc(-c3ccccc3)cc2)N2CCOCC2)cc1", "note": "(centres undefined)", "Potency": "active: 14.1 µM"}
{"smiles": "Cc1cc(C(=O)OCC(=O)NCc2ccco2)c(C)n1-c1ccccc1", "Potency": "inconclusive: 25.1 µM [inhibitor, single point]"}
{"smiles": "O=C(CSc1n[nH]c(=O)n1Cc1ccccc1)Nc1ccc(N2CCOCC2)cc1", "Potency": "active: 56.2 µM"}
{"smiles": "Cc1ccc(CNC(=O)c2nc(SCc3ccc(F)cc3)ncc2Cl)cc1", "activity, negative = inhibition": "inactive: 9.08%"}
{"smiles": "COc1ccc(NC(=O)CCCCC(=O)Nc2ccc(OC)cc2)cc1", "Potency": "inconclusive: 70.8 µM [inhibitor, single point]"}
